# Results: PubChem BioAssay AID686978 (National Center for Advancing Translational Sciences (NCATS), 2013)
# In all, about 420,000 compounds went through this assay and about 64,000 (15%) were called active. The inconclusive results got no clear call from the source; some entries with a clear call stand among them for comparison. The call rests on the fitted dose curve; in most records, active means well fitted inhibition curve with a large enough effect; inconclusive means small, poorly fitted or top-dose-only effect; inactive means flat fitted curve, though single readings scatter. No potency is given beside an inconclusive call; the fits are too rough.
# Assay: qHTS for Inhibitors of human tyrosyl-DNA phosphodiesterase 1 (TDP1): qHTS in cells in absence of CPT; further: nearly all actives have a fitted effect of over 55% in size
# Conditions: DT40 Tdp1-/- hTDP1 cells, no CPT, ATP luminescence, 48 h; activity change, negative = growth inhibition: at 46.2 µM (top of the series) unless noted
# Method in brief: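 Chicken DT40 Tdp1-/- cells complemented with human TDP1, screened without camptothecin (DMSO vehicle only), 400 cells/well. Compounds pin-transferred, cells incubated at 37 °C for at least 48 hr. Growth read as ATP-dependent luminescence (CellTiter-Glo, 30 min at RT).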
# On the % scale 0 is the no-effect control and ±100 the full control effect; potency means the concentration at half of the fitted maximal effect; tags describe the fitted curve by direction and shape.
SMILES,Potency,"activity change, negative = growth inhibition"
COc1ccccc1CNC(=O)c1ccc(-n2c(C)cc3c2CCCC3)cc1,active: 14.6 µM,–
N#CCCN(C(=O)COC(=O)COc1ccccc1Cc1ccccc1)c1ccccc1,inactive,–
CCOC(=O)Cn1c(=O)c2c(nc(Br)n2Cc2ccccc2Cl)n(C)c1=O,active: 23.1 µM,–
COc1ccc(NC(C)=O)cc1CNC(=O)COc1ccccc1C(=O)Nc1cccc(C)c1C,active: 4.11 µM,–
Cc1ccc(-c2ccc(CN3C(C(C)C)C(=O)N(Cc4cn(CCC5OCCO5)nn4)CCS3(=O)=O)cc2)cc1 (configuration not stated),active: 7.31 µM,–
CN(C)CCOc1ncnc2c1oc1ccccc12,inactive,–
Clc1ccc(CN2C3=NCCN3c3ccccc32)cc1,"inconclusive [inhibitor, single point]",–
CCOC(=O)c1ccccc1NC(=O)N1CC(C)Oc2ccc(C)cc21 (configuration not stated),"inconclusive [inhibitor, single point]",–
CC12CCC(C(=O)Nc3cccc(NC(=O)C45CCC(C)(C(=O)O4)C5(C)C)n3)(OC1=O)C2(C)C,"inconclusive [inhibitor, single point]",–
CC(C)(C)OC(=O)NCCCC[C@H](NC(=O)c1nc[nH]c1C(=O)N1CCc2ccccc2C1)C(=O)OC(C)(C)C,active: 20.6 µM,–
CCOC(=O)/C(=C/C=C/c1ccccc1)NC(=O)c1ccccc1,inactive,–
CCOc1ccc(NC(=O)C2CCN(S(=O)(=O)c3c(C)noc3/C=C/c3ccco3)CC2)cc1,"inconclusive [inhibitor, partial curve]",–
COc1ccccc1CNC(=O)Nc1nc(C(N)C(C)C)cs1 (configuration not stated),"inconclusive [inhibitor, single point]",–
Cc1nnc(-c2cccc(C(F)(F)F)c2)nc1N1CCOCC1,active: 14.6 µM,–
CCOc1ccc(CCNC(=O)CCC(=O)N2CCOc3ccc(C)cc32)cc1OCC,"inconclusive [inhibitor, partial curve, poor fit]",–
Cc1cccc(N(C(=O)CNC(=O)c2cccs2)C(C(=O)NC2CCCC2)c2ccncc2)c1 (configuration not stated),inactive,–
COc1cc(CC(=O)N(C)CC(=O)Nc2cc(C)ccc2C)cc(OC)c1OC,inactive,–
COc1cccc(/C=N/NC(=O)CNC(=O)C(c2ccccc2)c2ccccc2)c1O,active: 5.8 µM,–
Cc1[nH]c2ccccc2c1C(=O)C(=O)NCc1cccs1,"inconclusive [inhibitor, single point]",–
CCCCOC(=O)/C(C#N)=C\c1ccc(-c2ccc(Cl)cc2)o1,"inconclusive [inhibitor, single point]",–
COc1ccc(CN(C)C(=O)Cn2cnc(C(=O)Nc3ccc(C)c(C)c3)n2)cc1OC,"inconclusive [inhibitor, partial curve]",–
NC(=O)c1ccc(/C=N/O)nc1,inactive,–
COc1ccc(S(=O)(=O)N2CCCC2C(=O)n2nc(C)cc2C)cc1 (configuration not stated),"inconclusive [inhibitor, single point]",–
Cc1cc(Nc2ccc(F)cc2)nc(N)n1,inactive,–

SMILES,Potency,"activity change, negative = growth inhibition"
O=C(/C=C\Nc1ccc2c(c1)OCO2)c1ccccn1,"inconclusive [inhibitor, single point]",–
Cc1cc(C(=O)OCC(=O)NC2CCS(=O)(=O)C2)c(C)n1-c1ccccc1 (configuration not stated),active: 11.6 µM,–
Cc1ccc(-c2nc3ccccn3c2Nc2ccc3c(c2)OCCO3)o1,"inconclusive [inhibitor, single point]",–
COc1cccc(OCC(=O)NNC(=O)C(=O)Nc2ccc(OC)cc2OC)c1,inactive,–
COCc1[nH]nc2c1C(c1sccc1C)C(C#N)=C(N)O2 (configuration not stated),"inconclusive [inhibitor, partial curve]",–
Cc1cnc(C(=O)OCC(=O)Nc2ccc(Br)c(C)c2)cn1,inactive,–
O=C(N/N=C/c1cn(-c2ccccc2)nc1-c1cccs1)c1ccncc1,"inconclusive [inhibitor, single point]",–
CCOC(=O)CNC(=S)N(Cc1ccccc1)Cc1cccs1,inactive,–
NC(=O)c1ccccc1NS(=O)(=O)c1ccc(F)cc1,inactive,–
CC1CCN(CCCn2c(SCC(=O)NC3CCCC3)nc3ccccc3c2=O)CC1,inactive,–
COc1ccc(NC(=O)Cc2ccc(C)cc2)cc1S(=O)(=O)N1CCCCC1,"inconclusive [inhibitor, partial curve, poor fit]",–
CCOC(=O)N1CCN(C(=O)c2ccc3c(c2)N(Cc2cccc(Cl)c2)C(=O)c2ccccc2S3=O)CC1 (configuration not stated),active: 25.9 µM,–
COc1cc(NC(=O)C(=O)Nc2ccc3nc4n(c(=O)c3c2)CCCCC4)cc(OC)c1OC,"inconclusive [inhibitor, full curve]",–
NCc1csc(Nc2nncc3ccccc23)n1,"inconclusive [inhibitor, single point]",–
CCOC(=O)Cc1nn(Cc2ccc(Cl)cc2)c(=O)c2ccccc12,"inconclusive [inhibitor, single point]",–
COCCOC(=O)c1c(C)oc2ccc(OCc3ccccc3)cc12,"inconclusive [inhibitor, single point]",–
CC(C(=O)Nc1ccc(S(=O)(=O)N2CCCC2)cc1)N(C)CC(=O)Nc1cccc(F)c1 (configuration not stated),"inconclusive [inhibitor, single point]",–
COc1cc2oc(=O)cc(-c3ccc(-c4ccc(C)cc4)cc3)c2c(OC)c1OC,"inconclusive [inhibitor, single point]",–
O=C(Nc1ccc(Br)cc1)C1CCN(c2ncccn2)CC1,"inconclusive [inhibitor, single point]",–
Cc1onc(-c2ccccc2)c1NC(=O)OC(C)c1cccnc1 (configuration not stated),"inconclusive [inhibitor, single point]",–
CSc1nc(=S)cc(C)[nH]1,"inconclusive [inhibitor, single point]",–
O=C(CCCn1c(=O)c2sccc2n(Cc2ccc(Cl)cc2)c1=O)NCc1ccc2c(c1)OCO2,"inconclusive [inhibitor, partial curve]",–
O=C(Cc1ccccc1)Nc1ccc(C(=O)Nc2ccccc2C(=O)O)cc1,inactive,–
COc1cccc(C2=Cc3ccc(F)cc3C(CC(C)=O)N2c2ccc(C#CC3(O)CCCCC3)cc2)c1 (configuration not stated),"inconclusive [inhibitor, single point]",–

SMILES,Potency,"activity change, negative = growth inhibition"
Cc1ccccc1N1CCN(Cc2cc3c(cc2[N+](=O)[O-])OCO3)CC1,"inconclusive [inhibitor, single point]",–
C=CCc1cc(Cl)ccc1OCCCn1ccnc1,active: 20.6 µM,–
C=CCSC1=N/C(=C\C=C\c2ccco2)C(=O)S1,active: 18.4 µM,–
CNCCCCCCCCSc1nc(C(C)C)ccc1C(=O)c1cccs1,active: 4.22 µM,–
COc1ccccc1N1CCN(S(=O)(=O)CCNC(=O)COc2ccccc2F)CC1,"inconclusive [inhibitor, partial curve]",–
CCN(C(=O)COC(=O)Cn1c(=O)oc2ccccc21)c1c(N)n(Cc2ccccc2)c(=O)[nH]c1=O,inactive,–
COc1ccc2cc(C(=O)Nc3ccc(Cl)cc3)sc(=O)c2c1OC,"inconclusive [inhibitor, single point]",–
COc1ccc(CCNC(=O)CNS(=O)(=O)c2cccs2)cc1OC,inactive,–
Cc1scc(CN2CCN(c3ccc(F)cc3)CC2)c1C,"inconclusive [inhibitor, single point]",–
Cc1nc2ccc(NC(=O)CS(=O)(=O)c3ccc(F)cc3)cc2s1,inactive,–
COc1ccccc1CC(=O)NCc1csc(-c2cccs2)n1,inactive,–
COc1cc(/C=C2\SC(=N)N(c3ccc4c(c3)OCO4)C2=O)cc(OC)c1O,–,inconclusive: -34.1% [inhibitor]
COC(=O)c1sccc1S(=O)(=O)N1CCN(c2ccc(Cl)cc2)CC1,"inconclusive [inhibitor, single point]",–
Cc1cccc(N(CC(=O)N2CCCC2)S(=O)(=O)c2ccccc2)c1C,–,inconclusive: -34.1% [inhibitor]
CC1=C(c2ccc(Cl)cc2)S(=O)(=O)N=C1N1CCC(C(=O)NCCc2ccco2)CC1,"inconclusive [inhibitor, single point]",–
CCC1CN(C(=O)N2CCC(C(=O)NCc3cccc(F)c3)CC2)c2ccccc2O1 (configuration not stated),–,inconclusive: -36.6% [inhibitor]
COc1ccc(N(CC(=O)NCCc2ccccc2)C(=O)CCC(=O)Nc2nccs2)c(OC)c1,"inconclusive [inhibitor, single point]",–
Cc1ccc(C)n1CCN1CCN(C(=O)c2ccco2)CC1,"inconclusive [inhibitor, single point]",–
CCOC(=O)c1ccccc1NC(=O)c1cc2c(s1)-c1ccccc1SC2,"inconclusive [inhibitor, single point]",–
Cc1nc(N2CCc3ccccc3C2)[nH]c(=O)c1CCC(C)C,"inconclusive [inhibitor, single point]",–
COC(=O)c1cccc(C(=O)N2CCCC(C(=O)c3ccccc3OC)C2)c1 (configuration not stated),"inconclusive [inhibitor, single point]",–
Cc1cccc(NCc2nc(SCC(N)=O)n[nH]2)c1,inactive,–
CN(C)c1ccc(-c2[nH][nH]c(=O)c2NC(=O)c2ccc3ccccc3n2)cc1,"inconclusive [inhibitor, single point]",–
O=C(N/N=C/c1cn(-c2ccccc2)nc1-c1cccnc1)c1ccc(F)cc1,"inconclusive [inhibitor, partial curve]",–
